# PubChem BioAssay AID624202 (National Center for Advancing Translational Sciences (NCATS), 2012)
# Screen size: about 380,000 compounds; about 4,000 (1.1%) were called active. The shares of active, inactive and inconclusive entries below differ from those in the screen. Calls follow the shape of the dose curve; as a rule, active = well fitted activation curve with a large enough effect; inconclusive = small, poorly fitted or top-dose-only effect; inactive = no such curve, though single readings can be large or run the other way. Potencies of inconclusive entries are doubtful fits and often do not repeat.
# Test: qHTS Assay to Identify Small Molecule Activators of BRCA1 Expression; also: nearly all actives have a fitted effect of over 80% in size
# Conditions: MCF7-BRCA1-FFLuc reporter, luminescence, 48 h; activation: at 46.1 µM (top of the series), scaled: vehicle 0%, 10 µM genistein 100% unless noted
# Outline: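 48 h compound treatment of MCF7-BRCA1-FFLuc cells (phenol-red free MEM, 37 °C), then 15 min with luciferase substrate and luminescence imaging.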
# Potency is read from the fitted curve at half-maximal effect; tags tell the direction and shape of the fitted curve.
SMILES,Potency,activation
Cc1cc2ccccn2c1C(=O)c1ccc(Cl)cc1,inactive,
Cc1cccc(NC(=O)c2ccc(C(=O)c3ccccc3)cc2)n1,"inconclusive: 22.4 µM [activator, single point]",
CC(=O)Cn1ncc(Br)c(Br)c1=O,inactive,
NC(=O)c1c(NC(=O)C2COc3ccccc3O2)sc2c1CCN(Cc1ccccc1)C2 (stereo not drawn),inactive,
CCN1CCN(C(=O)c2cc3ccc(OC)cc3[nH]2)CC1,active: 11.2 µM,
CSc1ccccc1OCc1cc(C(=O)NCCc2ccco2)no1,"inconclusive: 11.2 µM [activator, partial curve, poor fit]",
O=C(NC(=S)Nc1ccc2ncccc2c1)c1ccccc1,"inconclusive: 8.91 µM [activator, partial curve, poor fit]",
S=C(Nc1ccccn1)c1ccccn1,active: 7.08 µM,
COc1ccc(NC(=O)c2ccccc2F)cc1Cl,"inconclusive: 3.16 µM [activator, full curve, poor fit]",
CCOC(=O)c1snc(C(=O)NC2CCCCC2)c1N,active: 7.08 µM,
CN(C)c1ccc(C(=S)Nc2ccccc2)cc1,,inconclusive: 57.5% [activator]
Cc1cc(C)c(CSc2ncc(-c3ccc([N+](=O)[O-])cc3)[nH]2)c(C)c1,inactive,
COc1ccc(CCNC(=O)c2nonc2N)cc1,"inconclusive: 11.2 µM [activator, partial curve, poor fit]",
CCCn1nc(NC(=O)C2CCCO2)c2cc3cc(C)ccc3nc21 (stereo not drawn),"inconclusive: 12.6 µM [activator, partial curve, poor fit]",
Cc1ccc2nc(SCc3cn4cccnc4n3)[nH]c2c1,"inconclusive: 12.6 µM [activator, single point]",
c1ccc(Nc2nc(-c3cccnc3)cs2)nc1,"inconclusive: 0.631 µM [activator, full curve, poor fit]",
CCOC(=O)Cn1nc(C)c(-c2ccccc2)c1N,inactive,
COc1ccc2oc(C(=O)NCCC(C)C)c(C)c2c1,active: 7.08 µM,
Cn1c2ccccc2c(=O)c2ccc(-c3ccc4c(c3)OCO4)cc21,"inconclusive: 2.51 µM [activator, partial curve, poor fit]",
CSc1ccccc1OCc1cc(C(=O)NC(C)Cc2cccc(C)n2)no1 (stereo not drawn),"inconclusive: 31.6 µM [activator, single point]",
Cc1ccc(Cc2nc(-c3cccc(C)c3)no2)cc1,active: 7.94 µM,
N=C1C(c2nc3ccccc3s2)=C(O)CN1C1CCCCC1,"inconclusive: 2.24 µM [activator, full curve, poor fit]",
O=C(c1ccccc1)c1ccc(N2CCCC2)cc1,inactive,
O=C(NCCc1ccc(Cl)cc1)c1ccc(Br)s1,active: 3.55 µM,
Cc1nn(C)cc1/C=C/C(=O)c1cccs1,"inconclusive: 15.8 µM [activator, single point]",
Oc1ccc(Br)cc1C1C=C(c2ccc3c(c2)OCO3)NC(c2ccc(F)c(Br)c2)N1 (stereo not drawn),inactive,

SMILES,Potency,activation
C/C(=N/OC(=O)C1CC1)c1cc(-c2ccc(Cl)cc2)no1,active: 3.98 µM,
Cn1ncc2c1ncn1nc(CCc3ccccc3)nc21,"inconclusive: 1.26 µM [activator, full curve, poor fit]",
CC(C)n1cnc2cc(NC(=O)c3ccco3)ccc21,"inconclusive: 1.12 µM [activator, partial curve, poor fit]",
O=C(COc1ccc2c(c1)OCO2)Nc1nccs1,active: 3.16 µM,
Cc1ccccc1/C=C/c1nc2ccccc2c(=O)[nH]1,"inconclusive: 1.26 µM [activator, partial curve, poor fit]",
O=C(N/N=C/c1cccc(Cl)c1)c1c(O)c2c([nH]c1=O)CCCC2,"inconclusive: 2.24 µM [activator, full curve, poor fit]",
Cc1ccc(/C(N)=N/OC(=O)c2ccc3c(c2)OCO3)cc1,"inconclusive: 2.51 µM [activator, partial curve, poor fit]",
N#Cc1c(N2CCCC2)nsc1-c1ccccc1,"inconclusive: 6.31 µM [activator, partial curve, poor fit]",
COC(=O)c1ccc(NC(=O)c2cccc(OC)c2)cc1,active: 2.51 µM,
c1ccc(-c2cc(-c3cc(-c4ccccc4)on3)no2)cc1,"inconclusive: 2.24 µM [activator, full curve, poor fit]",
CC(C)Nc1ncnc2c1ncn2[C@H]1CN(Cc2cccs2)C[C@@H](CO)O1,inactive,
COc1ccc(OC)c(NC(=O)c2ccc(CN3CCc4ccccc4C3)cc2)c1,inactive,
CCOC(=O)c1sc(N)c(C(=O)Nc2ccccc2)c1C,active: 12.6 µM,
CC1CCc2c(C(=O)Nc3ccccn3)csc2C1 (stereo not drawn),"inconclusive: 1.41 µM [activator, full curve, poor fit]",
O=C(COC(=O)C1CCCO1)Nc1nc(-c2ccc(F)cc2)cs1 (stereo not drawn),"inconclusive: 17.8 µM [activator, single point]",
CCOc1ccc(/C=C2\CCC(C3CCCC3)C2=O)cc1OC (stereo not drawn),inactive,
O=C(Nc1nonc1-c1ccc(Cl)cc1)c1ccccc1,inactive,
COc1ccc(-c2cc(C(=O)Nc3cc(S(=O)(=O)N4CCOCC4)ccc3N3CCOCC3)c3ccccc3n2)cc1,inactive,
Cc1ccc(OCc2nc(-c3ccccc3)no2)c(C)c1,"inconclusive: 2.24 µM [activator, full curve, poor fit]",
CC1CCCN(C(=O)CNC(=O)c2cccs2)C1 (stereo not drawn),active: 10 µM,
CCOc1ccc(/C=N/Nc2ccccn2)cc1,"inconclusive: 1.58 µM [activator, partial curve, poor fit]",
CC(C)(C)OC(=O)N1CCN(/[N+]([O-])=N/Oc2ccc([N+](=O)[O-])cc2[N+](=O)[O-])CC1,inactive,
Cc1cccc(COc2ccc(/C=N/NC(=O)c3nnn(-c4nonc4N)c3COc3ccc(F)cc3)cc2)c1,"inconclusive: 2 µM [activator, partial curve, poor fit]",
Cc1ccc(S(=O)(=O)N(C)C)cc1NC(=O)COC(=O)CCNS(=O)(=O)c1ccccc1,inactive,
Clc1ccccc1C1=Nn2c(nnc2-c2ccncc2)SC1,inactive,
CC(=O)Nc1cccc(NC(=O)c2ccccc2OCc2ccccc2)c1,inactive,

SMILES,Potency,activation
c1ccc(CNc2nc3ccccc3[nH]2)cc1,"inconclusive: 2.51 µM [activator, full curve, poor fit]",
O=C(NCCc1cccs1)C1CC(c2ccccc2[N+](=O)[O-])=NO1 (stereo not drawn),"inconclusive: 35.5 µM [activator, single point]",
O=C(CSc1cn(Cc2ccccc2)c2ccccc12)Nc1nccs1,active: 11.2 µM,
O=C(NC1CC1)c1ccc2nc(-c3ccco3)c(-c3ccco3)nc2c1,inactive,
CN(C)c1ccc(NC(=O)CN2CCc3ccccc3C2)cc1,active: 11.2 µM,
O=C(NC1=NCCS1)c1ccc(C(F)(F)F)cc1,active: 3.98 µM,
O=C(Nc1ccc2c(c1)OCCO2)N1CCOCC1,"inconclusive: 17.8 µM [activator, partial curve, poor fit]",
CC(C)(C)Cc1nnc(NC(=O)CSc2ccccc2)s1,"inconclusive: 11.2 µM [activator, partial curve, poor fit]",
O=C(CS(=O)(=O)c1cccc2nsnc12)Nc1ccccc1Cl,inactive,
CC1Oc2ccccc2N(CC(=O)NCc2ccc3c(c2)OCO3)C1=O (stereo not drawn),"inconclusive: 11.2 µM [activator, partial curve, poor fit]",
Cc1ccc(NC(=S)N2CCCC2)cc1,"inconclusive: 12.6 µM [activator, partial curve, poor fit]",
CCc1sc(C(=O)Nc2nc(-c3ccccn3)cs2)cc1C,inactive,
CC(=O)c1cccc(Nc2nc(-c3cccnc3)cs2)c1,"inconclusive: 8.91 µM [activator, partial curve, poor fit]",
Cc1ccc(Cn2nc(C)cc2C(=O)Nc2ccccc2Cl)cc1,active: 3.98 µM,
CC(=O)NCCN=C(C)c1sc2ccccc2c1O,active: 12.6 µM,
N#C/C(=N\Nc1ccc(Cl)cc1)C(=N)N1CCCCC1,"inconclusive: 0.355 µM [activator, full curve, poor fit]",
COc1ccc(C(=O)Nc2ccc3c(c2)OCCO3)cc1Br,"inconclusive: 2.24 µM [activator, full curve, poor fit]",
COc1ccc(S(=O)(=O)Cc2ccc(C(=O)NC3CCCCCC3)o2)cc1,inactive,
CCOC(=O)c1cccc(NC(=O)CSc2nnc(CNc3ccc(C)cc3)n2CC)c1,"inconclusive: 3.16 µM [activator, partial curve, poor fit]",
O=C(Nc1ccc2c(c1)OCCO2)NC12CC3CC(CC(C3)C1)C2,active: 3.55 µM,
O=c1cc(-c2ccc(O)cc2)oc2cc(O)cc(O)c12,active: 22.4 µM,
c1ccc(SCc2nc3ccccc3[nH]2)nc1,"inconclusive: 15.8 µM [activator, partial curve, poor fit]",
Cc1cccc(C(=O)OCC(=O)N2CCCCCC2)c1,"inconclusive: 10 µM [activator, partial curve, poor fit]",
COc1ccc(CCNC(=O)CCn2c(=O)c3ccccc3n(Cc3ccccc3F)c2=O)cc1OC,inactive,
CCN(CC)c1ccc2cc(C(=O)Nc3ccccn3)c(=O)oc2c1,,inconclusive: 184% [activator]
COc1cccc(C(=O)Nc2ccccc2F)c1,"inconclusive: 22.4 µM [activator, single point]",
